Data on 51 compounds can be found in publication PMC6919601, “Identification of Plasmodium dipeptidyl aminopeptidase allosteric inhibitors by high throughput screening” (PLoS ONE, 2019).

Each structure is given as a SMILES string. The campaign covered roughly 110,000 compounds. About 230 (0.21%) showed an effect of 50% or more. The list shows a part of the results.
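Further: 30 min substrate incubation versus DMSO and 10 µM JCP410 controls.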

In the assay the target is DPAP1 (Plasmodium falciparum, UniProt Q8IIJ9). The assay is described as follows: primary screen, percent inhibition; read by cleavage of a fluorogenic dipeptide substrate; higher = more effect of the substance. Details: species or system P. falciparum D10 trophozoite lysates; single well.
DPAP1, sequence (Q8IIJ9 whole entry, looked up): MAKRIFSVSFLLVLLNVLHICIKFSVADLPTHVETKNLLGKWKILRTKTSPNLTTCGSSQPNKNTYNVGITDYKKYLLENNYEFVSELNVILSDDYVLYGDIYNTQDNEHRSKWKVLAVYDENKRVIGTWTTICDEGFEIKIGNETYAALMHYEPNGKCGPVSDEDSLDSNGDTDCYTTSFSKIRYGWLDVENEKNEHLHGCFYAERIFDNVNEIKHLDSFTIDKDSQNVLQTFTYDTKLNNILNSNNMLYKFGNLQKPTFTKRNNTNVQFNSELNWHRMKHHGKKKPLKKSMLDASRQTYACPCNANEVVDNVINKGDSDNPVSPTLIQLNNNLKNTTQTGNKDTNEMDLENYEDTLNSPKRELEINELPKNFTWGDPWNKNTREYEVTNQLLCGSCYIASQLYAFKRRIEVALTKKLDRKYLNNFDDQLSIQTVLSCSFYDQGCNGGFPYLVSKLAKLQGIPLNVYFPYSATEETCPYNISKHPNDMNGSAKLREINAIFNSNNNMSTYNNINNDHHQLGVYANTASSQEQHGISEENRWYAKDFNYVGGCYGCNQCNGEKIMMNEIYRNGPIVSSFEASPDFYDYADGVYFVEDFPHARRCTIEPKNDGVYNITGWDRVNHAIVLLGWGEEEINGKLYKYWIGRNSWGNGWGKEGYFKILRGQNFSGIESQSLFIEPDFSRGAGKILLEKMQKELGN
For `Cc1cc(-c2[nH]nc3c2C(c2c(C)nn(-c4ccccc4)c2Cl)C(C#N)=C(N)O3)c(C)s1` (stereo not drawn), the “% Inhibition @ 10 uM” value came out at 2.38%.
The result for `CCC(CC)C(=O)Nc1cc(Cl)ccc1OC` reads 1.84%; that for `COc1ccccc1/C=C/c1nc(C#N)c(N2CC(C)OC(C)C2)o1` (stereo not drawn), -0.808%; that for `CC(C)Cn1cc(NC(=O)N(Cc2ccco2)C(C)c2ccccc2)c2ccccc2c1=O` (stereo not drawn), -7.53%.
The result for `CCOCCCNC(=O)c1ccc2c(c1)nc(C)n2-c1cc(OC)c(OC)c(OC)c1` reads -2.17%; that for `CCN(CC)CC#CCC(C)OC(C)(C)C` (stereo not drawn), -2.32%.
Turning to `CCCn1c2ccccc2c2cnn(CC(=O)NCc3ccc(F)cc3)c(=O)c21`, the “% Inhibition @ 10 uM” value amounted to 0.483%.
Under `COCCOC(=O)C1=C(C)NC(=O)NC1c1cn(-c2ccccc2)nc1-c1ccc(OC)cc1` (stereo not drawn) stands -0.178%; under `CCCCN(CC)CCNC(=O)Cn1cnc2onc(-c3ccc(F)cc3)c2c1=O`, -7.87%.
`O=C(c1scc2c1CCCC2)N1CCCC1`: the “% Inhibition @ 10 uM” value stood at 1.35%.
In the case of `CC[C@H](NC(=O)C(CC1CCCCC1)C(=O)N[C@@H](CC)C(=O)c1nc2ccccc2o1)C(=O)c1nc2ccccc2o1`, the “% Inhibition @ 10 uM” value came out at 7.14%.
Under `CCOc1ccc2nc(Nc3ncnc4onc(-c5ccc(Cl)cc5)c34)sc2c1` stands -3.95%; under `CCOC(=O)C1=C(C)N=c2s/c(=C\c3ccc(Cl)cc3)c(=O)n2C1c1ccc(N(C)C)cc1` (stereo not drawn), 2%; under `N#Cc1cccc(NC(=O)Nc2ccc(Cl)cc2)c1`, -4.15%.
The result for `OC[C@@H]1OC(Nc2ccc(OC(F)(F)F)cc2)[C@H](O)[C@@H](O)[C@@H]1O` (stereo partly drawn) reads 2.49%.
Take `C#CCSc1nc2c(c(=O)n1C)C1(CCCCC1)Cc1ccccc1-2`: the “% Inhibition @ 10 uM” value is reported as -3.38%.
As to `COc1ccc(NC(=O)CSc2nc(-c3cccc(OC)c3)ccc2C#N)cc1`, the “% Inhibition @ 10 uM” value is listed as 0.658%.
The result for `O=S(=O)(NCC1CCN(S(=O)(=O)c2ccccc2)CC1)c1ccccc1` reads -3.72%; that for `Cc1ccc(-c2nc(CSCC(=O)NC(C)C)c(C)o2)cc1`, 2.37%; that for `O=C1c2cccnc2C(=O)N1Cc1ccc(S(=O)(=O)N2CCN(Cc3ccccc3)CC2)cc1`, -3.36%.
Under `CCn1cc(CCC(=O)NCc2ccc3c(c2)OCO3)c2ccccc21` stands -4.04%; under `COc1ccc(C(=O)c2cnc3ccc(F)cc3c2S(=O)(=O)c2ccccc2)cc1`, -10.2%.
`CCC1CCCCN1CCCNC(=O)c1cc2cc3ccc(C)cc3nc2o1` (stereo not drawn): the “% Inhibition @ 10 uM” value was -3.35%.
The result for `Cc1ccc(N2C(=O)C3CC=CCC3C2=O)c(C)c1` (stereo not drawn) reads -12.4%.
Regarding `CCOC(=O)N1CCC(NC(=O)CSCc2nc(-c3ccccc3Cl)oc2C)CC1`, the “% Inhibition @ 10 uM” value was found to be 5.56%.
The result for `COc1ccc(CCNS(=O)(=O)c2ccc(OC)c(C)c2)cc1` reads -5.14%; that for `COc1ccc(CN2C(=O)CC(=O)NC2=O)cc1`, -5.9%.
Under `COc1ccc(-c2cc(=O)oc3c4c(ccc23)OCN(Cc2ccc(OC)c(OC)c2)C4)cc1` stands 0.685%; under `Cc1ccc(S(=O)(=O)CC2CSc3nc4ccccc4n32)cc1` (stereo not drawn), 3.73%; under `CC1CN(S(=O)(=O)c2ccc(Cl)cc2)C(C)CN1S(=O)(=O)c1ccc(Cl)cc1` (stereo not drawn), -0.116%.
Under `O=C(Cn1nc(Cc2cccnc2)c2ccccc2c1=O)NCc1cccs1` stands -12.4%.
For the compound `Cc1ccc(O)c(C(CC(=O)N2CCCCC2)c2ccccc2)c1` (stereo not drawn), the “% Inhibition @ 10 uM” value is recorded as 2.32%.
With `COc1ccc(C(=O)NCc2ccccn2)cc1OC`, the “% Inhibition @ 10 uM” value was -0.318%.
Turning to `COc1ccccc1CN1CCCC(O)C1` (stereo not drawn), the “% Inhibition @ 10 uM” value stood at 2.33%.
Under `COc1cccc(-c2nc3ccccc3s2)c1` stands -5.46%; under `CN(C)c1ccc(/C=C2\C(=O)NC(=S)N(c3ccc(Cl)cc3)C2=O)cc1`, -3.38%.
The result for `O=C(CSc1nnc(COc2ccccc2)o1)N1CCOCC1` reads 6.13%.
Under `CCOC(=O)c1cc(-c2ccc(OC)c(S(=O)(=O)NCCC3=CCCCC3)c2)on1` stands 0.92%.
As to `Cc1cccc2cc(-c3ccc(F)cc3)cn12`, the “% Inhibition @ 10 uM” value is 1.52%.
The result for `Cc1ccn2cc(-c3ccc(Cl)cc3)cc2c1` reads -1.6%; that for `COc1cc(C)c(Cl)c(C)c1S(=O)(=O)N1CC(C)OC(C)C1` (stereo not drawn), -1.43%.
The result for `Cc1ccc(S(=O)(=O)n2nc(-c3ccc(Cl)cc3)nc2N)cc1` reads -2.74%; that for `COc1ccc(-c2nnc3sc(NC(=O)c4ccccc4)nn23)cc1`, 3.3%; that for `CC(=O)c1ccc(N2CCN(Cc3ccccc3Br)CC2)cc1`, 3.48%.
Under `CN1C(=O)C(=Cc2c[nH]nc2-c2ccccc2)C(=O)N(C)C1=O` stands 15.9%; under `CC(=O)N1C(C(=O)O)CSC1c1cccc(C)c1` (stereo not drawn), -7.5%.
With `O=C(O)c1ccc2c(c1)C(=O)N(c1ccc(O)cc1)C2=O`, the “% Inhibition @ 10 uM” value was -3.16%.
The result for `CC1CN(c2ccc([N+](=O)[O-])c3cccnc23)CC(C)N1` (stereo not drawn) reads -1.29%; that for `COc1ccc(CNC2CCCCC2C)c2ccccc12` (stereo not drawn), -3.35%.
Under `COc1cccc(NC(=O)c2cccc(Br)c2)c1` stands -3.03%; under `Cc1ccc(Cl)cc1-n1ncc2c(N3CCN(C)CC3)ncnc21`, 0.925%.
